Test results taken from US8536307B2, “Anticalins” (Pieris AG, priority 1997, dated 2013).

Assay: ELISA, binding of anticalins to immobilized BSA-fluorescein conjugate
Settings: periplasmatic protein extract, absorption at 405 nm, unconjugated BSA as control

B1: Bbp: Recombinant bilin-binding protein from Pieris brassicae (modified, encoded on pBBP21/pBBP22), produced as a control (protein)
chain: DVYHDGACPEVKPVDNFDWSQYHGKWWEVAKYPNSVEKYGKCGWAEYTPEGKSVKVSNYHVIHGKEYFIEGTAYPVGDSKIGKIYHSLTYGGVTKENVFNVLSTDNKNYIIGYYCKYDEDKKGHQDFVWVLSRSMVLTGEAKTAVENYLIGSPVVDSQKLVYSDFSEAACKVNNLAEAKVLANRELDKYGVSDYYKNLINNAKTVEGVKALIDEILAALP
modifications: left off: small tags and cut ends
- binding signal in ELISA: practically no binding
